Molecules are shown by their SMILES. In all, about 45,000 compounds went through this assay and about 65 (0.1%) were called active. The call rests on the fitted dose curve; in most records, active means well fitted activation curve with a large enough effect; inconclusive means small, poorly fitted or top-dose-only effect; inactive means no such curve, though single readings can be large or run the other way. The list shows a part of the results.

Sequence of UniProt P54803 (P54803 whole entry, looked up): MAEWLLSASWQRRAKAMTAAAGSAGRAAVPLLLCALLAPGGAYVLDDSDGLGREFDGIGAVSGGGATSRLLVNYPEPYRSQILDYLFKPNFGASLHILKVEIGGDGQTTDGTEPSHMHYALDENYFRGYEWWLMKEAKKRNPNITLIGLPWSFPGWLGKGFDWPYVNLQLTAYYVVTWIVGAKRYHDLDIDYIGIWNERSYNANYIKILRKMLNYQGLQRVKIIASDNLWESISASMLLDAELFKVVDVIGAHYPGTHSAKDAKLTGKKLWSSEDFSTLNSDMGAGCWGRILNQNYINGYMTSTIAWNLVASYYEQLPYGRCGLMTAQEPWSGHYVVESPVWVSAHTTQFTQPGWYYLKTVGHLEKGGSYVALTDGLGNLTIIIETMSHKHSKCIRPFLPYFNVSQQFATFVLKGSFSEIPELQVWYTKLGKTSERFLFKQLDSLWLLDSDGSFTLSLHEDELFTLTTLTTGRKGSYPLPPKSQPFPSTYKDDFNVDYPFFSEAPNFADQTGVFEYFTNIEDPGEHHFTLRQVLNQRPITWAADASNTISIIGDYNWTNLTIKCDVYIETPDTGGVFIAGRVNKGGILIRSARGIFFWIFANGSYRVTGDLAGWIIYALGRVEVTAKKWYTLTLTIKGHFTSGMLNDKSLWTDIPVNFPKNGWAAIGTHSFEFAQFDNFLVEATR

In this experiment the target is Galactocerebrosidase (Homo sapiens) (UniProt P54803). In words: A Novel Cell-Based Assay to Identify Small Molecules for B -Galactocerebrosidase. Further: 0% is about no effect; nearly all actives have a fitted effect of over 65% in size. The settings on record: 145M-Twi-hGALC-G270D cells (Twitcher mouse brain line with human GALC G270D), HMU-beta-Gal fluorescence, 48 h; series mostly up to 57.5 µM; activation: at the top concentration. The gist of the method:
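Brain-derived Twitcher mouse 145M-Twi cells stably expressing human GALC-G270D or wild-type GALC, treated live, then residual GALC activity read by fluorescence of HMU-b-Gal substrate (0.1 mM final) in citrate-phosphate buffer pH 5.2 with sodium taurocholate. Signal increase indicates enhancement.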
Turning to `COc1ccc(Nc2ncnc3scc(-c4ccc(F)cc4)c23)cc1`, the “activation” value was inactive: -16.6%.

For the molecule `COc1ccc(Cn2c(SCc3ccc(C(=O)NC4CCCCC4)cc3)nc3cccnc32)cc1`, the “activation” value was inactive: -14.8%.

For the molecule `CC(=O)Nc1ccc2nc(SCCOc3ccc(C)cc3)sc2c1`, the “activation” value was inactive: -16.5%.

Consider `Cc1ccc(CN2CCC(CNC(=O)Nc3ccccc3F)CC2)cc1`, for which the “activation” value is inactive: -12.7%.

With `COc1ccc(C)cc1Nc1nc2c(S(=O)(=O)c3cc(C)ccc3C)nnn2c2ccsc12`, the “activation” value is inactive: -13.4%.

With `COc1cc2c(cc1NC(=O)COc1cc(C)cc(C)c1)oc1ccccc12`, the “activation” value was inactive: -9.04%.

`O=C(COc1ccc(Cl)cc1)NCCc1csc(-c2ccc(C(F)(F)F)cc2)n1`: the “activation” value was inactive: -13.3%.

As to `COCCNc1nc2c(S(=O)(=O)c3ccccc3)nnn2c2ccc(Cl)cc12`, the “activation” value was inactive: -4.33%.

As for `COc1ccc(Cn2c(CCC(=O)Nc3ccc(Br)c(C)c3)nc3cccnc32)cc1`, the “activation” value was inactive: -14.8%.

Consider `CCCCCn1c(=O)[nH]c2cc(C(=O)N3CCN(c4ccc(OC)cc4)CC3)ccc2c1=O`, for which the “activation” value is inactive: -7.51%.

For `CN(C)c1ccc(C(=O)Nc2sc(Nc3ccccc3)nc2C(N)=O)cc1`, the “activation” value was inactive: -29.7%.

In the case of `Cc1ccc(NC(=O)CN(C)S(=O)(=O)c2cccc3cccnc23)c(C)c1`, the “activation” value was inactive: -9.8%.

With `Cc1cc(C)cc(NS(=O)(=O)c2cc3[nH]c(=O)c(=O)[nH]c3cc2C)c1`, the “activation” value is inactive: 6.75%.

In the case of `O=C(Cn1nnc(-c2ccc(C(F)(F)F)cc2)n1)NCCc1ccccc1`, the “activation” value is inactive: -17.9%.

With `CCc1ccc(CN(Cc2ccco2)c2cnc(S(C)(=O)=O)nc2C(=O)Nc2ccc(C)c(Cl)c2)cc1`, the “activation” value is inactive: 2.39%.

With `COc1cc(OC)c(C(=O)NCc2nc(-c3ccccc3)no2)cc1OC`, the “activation” value was inactive: -12.7%.

As to `O=C(Nc1cc(Cl)cc(Cl)c1)c1ccc(F)c(S(=O)(=O)N2CCCC2)c1`, the “activation” value was inactive: -20.4%.

In the case of `CCCC(=O)Oc1c(Sc2ccc(C)cc2)c(C)nn1-c1ccccc1`, the “activation” value was inactive: -22.3%.

In the case of `CCOC(=O)C1CCC(CN(Cc2ccc(OC)cc2)S(=O)(=O)c2ccc(C)cc2)CC1` (centres undefined), the “activation” value is inactive: -9.69%.

As for `COc1ccc(CCNC(=O)C(=O)NCC(c2ccco2)S(=O)(=O)c2cccs2)cc1` (centres undefined), the “activation” value was inactive: -25%.

For `CCC(Sc1nc2cc3c(cc2c(=O)n1CCCCCC(=O)NCc1ccc2c(c1)OCO2)OCO3)C(=O)NCCCOC` (centres undefined), the “activation” value was inactive: -6.59%.

Consider `Cc1nn2c(=O)cc(COC(=O)c3ccc(NC(=O)CCc4ccccc4)cc3)nc2s1`, for which the “activation” value was inactive: -11.3%.

For the molecule `CCc1noc(-c2ccc(N3CCC(C)CC3)c([N+](=O)[O-])c2)n1`, the “activation” value was inactive: -32.7%.

Turning to `Cc1cccc(OCCn2c(SCC(N)=O)nc3ccccc32)c1`, the “activation” value is inactive: -22.3%.

For `O=C(Nc1cccc(Br)c1)Nc1nc2c(s1)CCCCCC2`, the “activation” value was inactive: -7.79%.

Consider `COc1cc2c(C(=O)N3CCN(c4cccc(Cl)c4)CC3)cn(C)c(=O)c2cc1OC`, for which the “activation” value was inactive: 4.75%.

For the molecule `O=C(CN1C(=O)c2cccnc2Oc2ccc(Cl)cc21)NCCCN1CCCCC1`, the “activation” value was inactive: 6.36%.

For `CC(C)C(=O)Nc1ccccc1C(=O)OCc1cc(=O)n2nc(C3CC3)sc2n1`, the “activation” value is inactive: 3.19%.

Turning to `COc1cccc(CCNC(=O)c2ccc(Cn3c(SCc4ccccc4)nc4cccnc43)cc2)c1`, the “activation” value is inactive: -38.6%.

Consider `CCOc1ccc(NC(=O)NC(C)c2c(-n3cccc3)sc3c2CCN(CC)C3)cc1` (centres undefined), for which the “activation” value was inactive: -16.7%.

Regarding `O=C(Nc1ccc2nc(SCCOc3ccccc3)sc2c1)c1ccco1`, the “activation” value was inactive: -11.4%.

For the molecule `Cc1cccn2c(=O)c3cc(C(=O)NC(C)C)n(C)c3nc12`, the “activation” value was inactive: -6.59%.

Consider `Cc1cccc(-c2nc3cc(NC(=O)c4ccc(OCC(C)C)cc4)ccc3o2)c1`, for which the “activation” value was inactive: -14%.

For `COc1ccc(NC(=O)c2cnc(N3CCOCC3)c3ccccc23)cc1OC`, the “activation” value is inactive: -15.9%.

For the molecule `Cc1ccn2c(c1)nc(=O)c1cc(S(=O)(=O)N3CCCCC3)ccc12`, the “activation” value is inactive: -8.31%.

Consider `Cc1ccccc1NC(=O)C1CCN(C(=O)c2ccc(F)cc2)CC1`, for which the “activation” value was inactive: -18.6%.

On to `COc1ccc(-c2nc3ccccc3n2Cc2ccc(C(C)C)cc2)cc1`, for which the “activation” value was inactive: -11.3%.

For `CCOc1ccc(NC(=O)Cn2cc(C(=O)c3ccc(F)cc3)c(=O)c3cc4c(cc32)OCO4)cc1`, the “activation” value is inactive: -5.13%.

Consider `Cc1ccc(-n2ncc(C(=O)NCCc3ccsc3)c2C2CCN(C(=O)OC(C)(C)C)CC2)c(C)c1`, for which the “activation” value is inactive: -5.94%.

With `Cc1cccc(N2CCN(c3ncnc4onc(C)c34)CC2)c1C`, the “activation” value is inactive: -23.7%.

On to `CCc1ccc(C2N=C(N)Nc3nc4ccccc4n32)cc1` (centres undefined), for which the “activation” value is inactive: -4.8%.

As to `COC(=O)c1cccc(Nc2c(-c3ccc(SC)cc3)nc3nc[nH]n23)c1`, the “activation” value was inactive: -17%.

As for `COc1ccc(CCNC(=O)Cn2c(=O)c3sccc3n(CC(=O)Nc3cccc(C(F)(F)F)c3)c2=O)cc1OC`, the “activation” value is inactive: -4.98%.

Turning to `O=C(NCc1cccc(Cl)c1)c1cnc(N2CCCCC2)c2ccccc12`, the “activation” value was inactive: 2.15%.

For `Cc1ccc(-c2ncc(Cl)cc2-c2ccc(S(C)(=O)=O)cc2)cn1`, the “activation” value was inactive: -17.7%.

As for `Cc1cccc(S(=O)(=O)c2cn(Cc3ccc(F)cc3)c3cc(N4CCCCC4)c(F)cc3c2=O)c1`, the “activation” value was inactive: -3.07%.

In the case of `O=C(CCCCCn1c(=O)[nH]c2ccccc2c1=O)NCCc1ccccc1`, the “activation” value is inactive: -14.1%.

Consider `COc1ccc(Cl)cc1NC(=O)CN(c1cccc(C)c1C)S(C)(=O)=O`, for which the “activation” value is inactive: -7.81%.

Consider `CCc1ccc(CNC(=O)CN2C(=O)CSc3ccc(S(=O)(=O)N4CCOCC4)cc32)cc1`, for which the “activation” value is inactive: -12.7%.
